# From the supplement of paper PMC3334620
# Over roughly 33,000 sequences, “E-score (-0.5 to 0.5)” has its median near -0.021; the highest 2% begin near 0.32. The list shows a part of the results.
# Biological target: T1, Zap1 (UniProt P47043)
# T1 sequence: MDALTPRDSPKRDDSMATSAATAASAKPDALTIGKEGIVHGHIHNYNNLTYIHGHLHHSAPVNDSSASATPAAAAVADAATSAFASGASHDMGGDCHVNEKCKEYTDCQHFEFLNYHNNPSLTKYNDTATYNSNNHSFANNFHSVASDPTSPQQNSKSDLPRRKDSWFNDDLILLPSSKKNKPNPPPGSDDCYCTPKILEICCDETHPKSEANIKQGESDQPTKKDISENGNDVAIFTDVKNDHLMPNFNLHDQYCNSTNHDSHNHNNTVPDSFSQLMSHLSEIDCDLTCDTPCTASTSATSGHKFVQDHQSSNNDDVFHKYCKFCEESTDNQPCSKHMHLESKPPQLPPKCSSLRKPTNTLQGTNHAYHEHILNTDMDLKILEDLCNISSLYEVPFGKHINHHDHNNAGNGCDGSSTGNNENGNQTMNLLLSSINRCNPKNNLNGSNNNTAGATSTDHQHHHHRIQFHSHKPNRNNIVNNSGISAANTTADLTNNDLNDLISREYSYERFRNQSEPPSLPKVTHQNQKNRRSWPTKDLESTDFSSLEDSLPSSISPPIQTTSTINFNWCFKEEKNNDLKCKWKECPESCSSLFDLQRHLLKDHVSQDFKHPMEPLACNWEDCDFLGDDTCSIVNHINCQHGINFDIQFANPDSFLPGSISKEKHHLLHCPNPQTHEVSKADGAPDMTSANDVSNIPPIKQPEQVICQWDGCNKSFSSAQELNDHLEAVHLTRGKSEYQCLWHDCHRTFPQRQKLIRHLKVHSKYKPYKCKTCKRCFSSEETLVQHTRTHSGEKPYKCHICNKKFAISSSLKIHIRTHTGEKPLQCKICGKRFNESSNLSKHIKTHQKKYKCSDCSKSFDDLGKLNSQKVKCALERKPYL
# Assay: PBM E-score (8-mer binding enrichment) (E-score (-0.5 to 0.5)); higher = stronger / more preferred TF binding; most listed sequences are background and not binding sites
# Conditions: protein concentration: 200 nM; construct: GST-full length
# Procedure, shortened: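 For each ungapped eight-base word taken together with its reverse complement, the Universal PBM Analysis Suite assigned an E-score. Binding data came from GST-tagged yeast transcription factors, applied at about 100-200 nM, on universal all-10-mer Agilent arrays made double-stranded by primer extension. Fluorescent anti-GST marked bound protein, and scans were normalised with masliner.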
row,Sequence,PBM E-score
1,CGGTTGAC,-0.0212
2,CGTAAAGA,0.0681
3,CAGACCCA,0.0103
4,CTGCTAGA,-0.184
5,GCGTCCTA,-0.163
6,CCCGGCCG,-0.0333
7,CATACATC,-0.0346
8,CAAAGCCA,-0.186
9,GGGTACCC,0.469
10,CCCAGCAC,-0.0416
11,AATACTGG,0.109
12,TAAATCGA,0.134
13,ACCAGGCC,-0.0147
14,GAGGAAAC,-0.0555
15,CAGTGGGG,-0.143
16,CCCGCTAA,-0.141
17,ACCTATAA,0.188
18,AACAGATA,0.0973
19,CTGCTGTC,-0.144
20,ATCGAGTC,-0.109
21,GACTTACA,-0.126
22,CACTAGTA,0.0525
23,GATGCCTA,-0.157
24,GCGGTGCC,-0.0174
25,GATGCCAC,-0.28

row,Sequence,PBM E-score
1,GGTGTATA,-0.184
2,AGTTTCGC,-0.0457
3,ACCTTAAC,0.358
4,AACCGTCC,-0.00655
5,ACCAGCCC,-0.0014
6,ATTAAGAG,0.0588
7,CGTGACAG,-0.0781
8,CACCACAC,-0.0631
9,ATCCGACA,-0.129
10,AGCGCGGG,-0.0416
11,CAACATTG,-0.0114
12,CCGAAGCA,-0.176
13,GCTGGATA,0.0267
14,ATCTGCAC,-0.151
15,CATGTAGA,-0.113
16,AGACGATG,-0.191
17,GACTTTCC,-0.0293
18,GCCCAGGA,0.0622
19,GCGGCAGC,-0.362
20,TAACTATA,0.225
21,GACTAGCA,-0.286
22,AATCGAAT,-0.0387
23,ACGCTGTA,0.0193
24,CTTTAGAA,0.118
25,ACGTAGGA,-0.12

row,Sequence,PBM E-score
1,CTGCCGCA,-0.14
2,CTATAATC,-0.017
3,AGCGCCGC,-0.209
4,GTCGTCGA,-0.164
5,AATGCCGA,-0.149
6,CACCCGAA,0.3
7,ACGAAATG,0.0348
8,AGCAGAGA,-0.167
9,GGCGAAAA,0.0311
10,CCATCGCG,0.222
11,GCATTTAA,0.177
12,GAAGTCCA,0.0624
13,AGAAGGCA,-0.161
14,CCGAGCAC,-0.0385
15,AGTACGCC,-0.146
16,ACGGTCTC,0.17
17,ATTAGTCG,0.00798
18,CACATCAG,-0.0384
19,GGGTAGTA,0.219
20,CGGCTTAG,-0.0939
21,ACTCCCTA,-0.307
22,CCTAACAC,0.146
23,GGCAAGCC,-0.273
24,AAACTTCT,0.0376
25,AAGGACAA,-0.0382

row,Sequence,PBM E-score
1,AATTTGTG,0.107
2,CCGGCTAA,-0.18
3,AACGCACT,0.0749
4,CTGGGACA,-0.175
5,TAGCGCAA,-0.0297
6,GCGTATTA,-0.00216
7,GTAGCGCA,-0.174
8,AATTACAA,0.101
9,AGATTTAT,0.048
10,AACATAAA,0.136
11,GGGGACGA,-0.238
12,ACAACACG,-0.301
13,TTAGGCAA,-0.0283
14,CCATACGG,0.0563
15,ACTAGAGG,-0.0174
16,GATCTAAA,-0.0138
17,GGGAGCGA,-0.263
18,ATCACTCA,0.0763
19,CCGAGTGA,0.00132
20,GACTCGCC,-0.251
21,GATACTCA,-0.029
22,ACAATCTA,-0.104
23,GGGATGCA,-0.229
24,CATCTGGG,-0.0798
25,GCTTAGCC,-0.303

row,Sequence,PBM E-score
1,ACGGCTTA,0.0414
2,CGCACACC,0.022
3,AGACACGA,-0.162
4,TGACTGAA,-0.0715
5,AACTAGAG,-0.0699
6,ATCTACCG,0.0761
7,AGCTCCTA,-0.261
8,CTATGCGC,-0.176
9,GCTTTTCC,-0.0881
10,CAACCTTC,0.313
11,AGTAAGCA,-0.0127
12,GAGCATCA,-0.305
13,GAGGGCTA,-0.27
14,TCTGATCA,0.0329
15,TCTCGCAA,-0.0144
16,GAGTGTTA,-0.0489
17,ACTTTGAT,-0.0578
18,AAAGTACA,0.0715
19,AGCCGTCC,-0.215
20,ACATCCAC,0.143
21,AATGGTAC,0.259
22,AAAAATAG,0.0926
23,GGTGCTGA,-0.00403
24,CCGGGTCG,0.0687
25,CGGCAAGA,-0.0749

row,Sequence,PBM E-score
1,ACGGTGCT,0.00765
2,GGCACTAA,-0.0314
3,AGGATGAT,-0.152
4,ACCGGATG,0.0538
5,GGCTCAGA,-0.101
6,GGCATCCC,-0.338
7,CGACGCGA,-0.0454
8,CATCCAGA,-0.15
9,ACTAGCAA,-0.144
10,CCACACAA,0.104
11,CGTGGTGA,-0.142
12,CGGCGCGA,0.0413
13,ACCCGATA,0.219
14,AGCCCACT,-0.264
15,CTTGTAGC,0.014
16,ACGCGGAC,-0.0389
17,GCTGGTAC,0.118
18,CCACGCCA,-0.0164
19,AGCCCCCT,-0.406
20,GTCGTAGA,-0.199
21,ACGCAGTA,-0.11
22,CCGTGAGA,-0.0689
23,CTCTGCTA,-0.252
24,GGATGTCA,0.144
25,ATCACTGG,0.0331

row,Sequence,PBM E-score
1,CACGTTTC,-0.207
2,ATGCTCAA,-0.229
3,ATCTTGCG,-0.0918
4,GGACACAA,0.23
5,CAGTCGCG,-0.196
6,CATCATAG,-0.0242
7,ATAGCGGG,-0.129
8,CCTACCAC,0.0696
9,CCCTATCG,0.0222
10,ATTCCGAA,0.111
11,ATGGGAAC,0.0678
12,ACTTAGTC,-0.299
13,GCATCTAA,-0.0494
14,CGTCCTTC,-0.165
15,TCTAGCAA,0.00871
16,CGTATAGA,-0.108
17,AGAAAGGC,-0.101
18,CACGGAAC,-0.0674
19,ACTGTAAG,0.205
20,ACTTAAAT,0.0411
21,TATAGTGA,-0.0293
22,CGCCCACC,0.0732
23,GTGTTAAC,0.0909
24,TCGTAGCA,-0.0581
25,GGAGAGAC,-0.0329

row,Sequence,PBM E-score
1,AGCTTGTA,0.01
2,GCCCTACA,-0.0544
3,ACTTAGAC,-0.0119
4,ATAAAGAT,0.00332
5,AGGCGGGA,-0.238
6,CAAGCGTC,-0.108
7,ATGGCTAC,0.11
8,CATGCGGG,-0.0115
9,GAGACATC,-0.215
10,GACTACTA,-0.0139
11,CTATAAGC,-0.0344
12,AAGAAAAT,0.0655
13,CGCAATCA,0.0503
14,CAGGTACG,0.0402
15,GCGCGGAA,0.137
16,CAGGTGTA,-0.0735
17,GCTGCGTA,-0.0158
18,GAGACGCA,-0.166
19,GAAGGGCC,-0.00816
20,GTCCAATA,-0.0429
21,CAGTGAAC,0.0317
22,ACTTTCAA,0.311
23,GTAACCAA,0.417
24,GATAAGAC,-0.049
25,ACACCGGA,-0.0634

row,Sequence,PBM E-score
1,GCCTGCGC,-0.183
2,GACGTAAA,-0.0625
3,AGTACCTG,0.171
4,CCATTCTA,0.147
5,ACTTCGTG,-0.0575
6,TATCGTCA,-0.012
7,CGAAAATC,0.0616
8,AGCTACAT,-0.263
9,ACGCGGCT,-0.0407
10,CGAGATCA,0.0314
11,CCACTCCA,-0.122
12,CATTGCCA,-0.112
13,AGCCGACG,-0.253
14,TCAAGCAA,-0.0274
15,CCGCGTGA,0.133
16,CTTCGGGA,-0.193
17,ACAATGGT,0.0633
18,GAATGGTC,-0.0042
19,CCATAGTC,-0.0427
